Measurements from PubChem BioAssay AID1508623 (National Center for Advancing Translational Sciences (NCATS), 2021).
The whole screen tested about 48,000 compounds, of which about 450 (0.94%) were called active. Another 19% or so got no clear call; they are omitted. Calls come from the whole dose curve; as a rule, active = well fitted inhibition curve with a large enough effect; inconclusive = small, poorly fitted or top-dose-only effect; inactive = no such curve, though single readings can be large or run the other way. Some of the results follow.

test: Primary qHTS for Identification of Small Molecule Inhibitors of Huntingtin Promoter Activity; settings: HEK293 HTT promoter firefly luciferase reporter (activity 0% = vehicle and -100% = no light), 24 h; series mostly up to 57.5 µM; activity change, negative = inhibition: at the top concentration; note: nearly all actives have a fitted effect of over 50% in size
Summary of the method: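 HEK293 cells carrying firefly luciferase reporters were seeded at 2,500 per well in Opti-MEM and cultured for 24 h. They were then treated with compounds at up to 57.5 uM final for 24 h at 37 degrees C before Dual-Glo luminescence readout.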

Row | SMILES | activity change, negative = inhibition
1 | CC(=O)N1c2ccc(S(=O)(=O)N3CCCCCC3)cc2CC1C(=O)NCc1ccccc1 (configuration not stated) | inactive: -22%
2 | O=C(Nc1ccc2oc(-c3ccccc3)nc2c1)c1ccc2ccccc2c1 | inactive: -15% [at 11.5 µM]
3 | COc1cc2ncnc(Nc3cccc(Cl)c3)c2cc1OC | inactive: 1.02%
4 | COCCn1c(C)cc(O)c(C(c2ccccc2)N2CCN(CCO)CC2)c1=O (configuration not stated) | inactive: -5.35%
5 | NNc1nnc(NN)c2ccccc12 | inactive: 16.1%
6 | COc1cc2c(cc1OC)C(COc1ccc3c(C)cc(=O)oc3c1)N(C(=O)c1cccc(OC)c1OC)CC2 (configuration not stated) | inactive: -28.1%
7 | COc1ccc2c(c1)c1c(c(=O)n(Cc3ccccc3)c(=O)n1CC(=O)Nc1cc(C)cc(C)c1)n2C | inactive: -7.93%
8 | O=C(Nc1ccccc1OCc1cc(=O)n2ccccc2n1)c1cccc(Br)c1 | inactive: -5.28%
9 | CCOc1ccc(NC(=O)N2CCC(CN3CCCCCC3)CC2)cc1 | inactive: -20.2%
10 | Cc1ccc2c(n1)sc1c(=O)n(-c3cccc(C(F)(F)F)c3)nnc12 | inactive: 11.4%
11 | Clc1ccc(OCc2nc(-c3ccc(-n4cccc4)cc3)no2)cc1 | inactive: -14.3% [at 11.5 µM]
12 | Cc1ccc(Cl)cc1NC(=O)CCCn1c(=O)c2cccn2c2ccccc21 | inactive: -6.81%
13 | COc1ccc(-c2nc3scc(CCNS(=O)(=O)c4cc(F)ccc4OC)n3n2)cc1OC | inactive: 6.48%
14 | Cc1ccc(CN2CCSc3ccc(C(=O)Nc4cc(C)cc(C)c4)cc32)cc1 | inactive: -19%
15 | CC(=O)N1CCc2c(sc3nc(SCC(N)=O)n(-c4ccc(F)c(Cl)c4)c(=O)c23)C1 | inactive: 10.7%
16 | Cc1ccc(CCNC(=O)CCCn2c(=O)c3ccccc3n(CC(=O)Nc3cc(Cl)ccc3C)c2=O)cc1 | inactive: 0.703%
17 | CN(C(=O)CSc1nnc(-c2ccc([N+](=O)[O-])cc2)o1)C1CCCCC1 | inactive: 3.82%
18 | Clc1ccc(Nc2c(-c3cccs3)nc3ccc(Cl)cn23)cc1 | inactive: 18.1%
19 | COc1ccc(CCNC(=O)Cn2c(=O)cc(C(F)(F)F)c3c(C)nn(C)c32)cc1OC | inactive: -24.6%
20 | CCc1cccc(NC(=O)c2cc3c(=O)[nH]c4ccccc4c3n2C)c1 | inactive: 1.94%
21 | CCOC(=O)c1sc2nc(C)n(CC(=O)Nc3cccc(Cl)c3)c(=O)c2c1C | inactive: -5.67%
22 | Cc1ccc(C)c(CSC2=NC(C)(C)Nc3ccccc32)c1 | inactive: 2.24%
23 | CC(=O)c1cccc(NC(=O)CSc2nnc3ccc(-c4ccc(Cl)cc4)nn23)c1 | inactive: -7.14%
24 | O=C(O)c1ccccc1O | inactive: 12.8%

Row | SMILES | activity change, negative = inhibition
25 | COc1ccccc1NC(=O)C1=C(C)Nc2nc(SCc3ccccc3F)nn2C1c1cccnc1 (configuration not stated) | inactive: -6.97%
26 | Cc1ccc(Cl)cc1NC(=O)c1sc2nc(-c3ccccc3)cn2c1C | inactive: -20.4%
27 | CC(C)CN(CC(C)C)c1nc(-c2ccc(Cl)cc2)nc2ccccc12 | inactive: -3.1%
28 | CO/N=C(/C(=O)N[C@@H]1C(=O)N2C(C(=O)O)=C(Cn3nnc(C)n3)CS[C@H]12)c1csc(N)n1 | inactive: -0.756%
29 | Cc1c(Cl)cccc1NC(=O)c1ccc2c(c1)nnn2C1CCCC1 | inactive: -30.5%
30 | O=C(Nc1ccccc1C(=O)OCc1cc(=O)n2c3c(sc2n1)CCCC3)c1ccccc1 | inactive: -32.2%
31 | O=C(CCS(=O)(=O)c1ccccc1)N(Cc1cccnc1)c1nc2c(Cl)cccc2s1 | inactive: 2.5%
32 | O=C(NCCCN1CCN(c2ccc(F)cc2)CC1)C1COc2ccccc2C1 (configuration not stated) | inactive: -30.5%
33 | COc1ccc(Cl)cc1NC(=O)Cn1c(=O)n(Cc2nc(C)no2)c(=O)c2ccccc21 | inactive: -2.78%
34 | CCCOc1ccc(C2C(=O)N(C3CCCCC3)CC(=O)N2CCc2ccccc2)cc1OC (configuration not stated) | inactive: 9.14%
35 | Clc1cccc(-n2ncc3c(NCCc4ccccc4)ncnc32)c1 | inactive: 9%
36 | CCOC(=O)c1cccc(NS(=O)(=O)c2cc(-c3cnc(C)o3)ccc2OC)c1 | inactive: -42.3%
37 | CN(C)C(=O)c1ccc(NC(=O)Cn2nc(-c3ccccc3)c3ccccc3c2=O)cc1 | inactive: -19.2% [at 11.5 µM]
38 | CCOC(=O)c1c(NC(=O)COc2cc(C)ccc2C(C)C)sc2c1CCCC2 | inactive: -12%
39 | CCCCNC(=O)C(CC)Sc1nnc(-c2ccc(F)cc2)c(-c2ccc(F)cc2)n1 (configuration not stated) | inactive: -18.7%
40 | Cc1cccc(NC(=O)c2c(NC(=O)c3cccs3)sc3c2CCC(C)C3)c1 (configuration not stated) | inactive: 11.2%
41 | CC(=O)Nc1ccc(OCc2cc(=O)n3ccccc3n2)cc1 | inactive: 44.9%
42 | COc1ccccc1N1CCN(C(CNC(=O)C(=O)NCCN(C)C)c2cccnc2)CC1 (configuration not stated) | inactive: -0.196%
43 | CCOc1ccc(NC(=O)c2cc(=O)c3cc(CC)ccc3o2)cc1 | inactive: 7.73% [at 11.5 µM]
44 | Cc1cccc(NC(=O)CSc2nc(=O)n(Cc3ccncc3)c3c2CCC3)c1C | inactive: 0%
45 | Cc1ccc(-c2noc(-c3ccccc3NC(=O)C3CC(=O)N(c4cccc(C)c4)C3)n2)cc1 (configuration not stated) | inactive: 21.8%
46 | Oc1ccc(/C=C/c2nc(-c3ccccc3O)n(-c3ccccc3)n2)c(O)c1 | inactive: -27.6%
47 | COc1ccc(CCNC(=O)c2ccc3c(c2)sc2nc(-c4ccc(C)cc4)cn23)cc1OC | inactive: 0.069%
